# Laboratory results from the supplement of paper PMC8728848.
# This is one part of the list.
# Assays:
# Test in all cases: glycan array binding signal (z-score within array); higher = stronger binding
# Conditions in all cases: glycan notation: IUPAC condensed, linker removed
# [1] = target: GlcNAc(b1-2)Gal(b1-3)GalNAc
# Procedure, shortened: (§1)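 The binding signal is a Z-score computed within each array. Data were drawn from 3228 arrays in the Consortium for Functional Glycomics database, restricted to those with a known protein sequence. Scores were averaged over arrays of the same protein sequence at different concentrations or buffers, and over linkers, and negative values can be taken as non-binding.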
# [2] = target: GlcNAc(b1-2)Man(a1-3)[GlcNAc(b1-2)Man(a1-6)]Man(b1-4)GlcNAc(b1-4)GlcNAc
# Procedure, shortened: as §1
# [3] = target: GlcNAc(b1-2)Man(a1-3)[GlcNAc(b1-2)Man(a1-6)]Man(b1-4)GlcNAc(b1-4)[Fuc(a1-6)]GlcNAc
# Procedure, shortened: as §1
# [4] = target: GlcNAc(b1-2)Man(a1-3)[GlcNAc(b1-4)][GlcNAc(b1-2)Man(a1-6)]Man(b1-4)GlcNAc(b1-4)GlcNAc
# Procedure, shortened: as §1
# [5] = target: GlcNAc(b1-2)Man(a1-3)[GlcNAc(b1-4)][GlcNAc(b1-2)Man(a1-6)]Man(b1-4)GlcNAc(b1-4)[Fuc(a1-6)]GlcNAc
# Procedure, shortened: as §1
# [6] = target: GlcNAc(b1-2)[GlcNAc(b1-4)]Man(a1-3)[GlcNAc(b1-2)Man(a1-6)]Man(b1-4)GlcNAc(b1-4)GlcNAc
# Procedure, shortened: as §1
# [7] = target: GlcNAc(b1-2)[GlcNAc(b1-4)]Man(a1-3)[GlcNAc(b1-4)][GlcNAc(b1-2)Man(a1-6)]Man(b1-4)GlcNAc(b1-4)GlcNAc
# Procedure, shortened: as §1
# [8] = target: GlcNAc(b1-2)[GlcNAc(b1-4)]Man(a1-3)[GlcNAc(b1-4)][GlcNAc(b1-2)[GlcNAc(b1-6)]Man(a1-6)]Man(b1-4)GlcNAc(b1-4)GlcNAc
# Procedure, shortened: as §1
# [9] = target: GlcNAc(b1-2)[GlcNAc(b1-4)]Man(a1-3)[GlcNAc(b1-4)][GlcNAc(b1-2)[GlcNAc(b1-6)]Man(a1-6)]Man(b1-4)GlcNAc(b1-4)[Fuc(a1-6)]GlcNAc
# Procedure, shortened: as §1
# [10] = target: GlcNAc(b1-2)[GlcNAc(b1-6)]Man(a1-6)[GlcNAc(b1-2)Man(a1-3)]Man(b1-4)GlcNAc(b1-4)GlcNAc
# Procedure, shortened: as §1
# [11] = target: GlcNAc(b1-2)[GlcNAc(b1-6)]Man(a1-6)[GlcNAc(b1-2)Man(a1-3)]Man(b1-4)GlcNAc(b1-4)[Fuc(a1-6)]GlcNAc
# Procedure, shortened: as §1
# [12] = target: GlcNAc(b1-2)[GlcNAc(b1-6)]Man(a1-6)[GlcNAc(b1-4)][GlcNAc(b1-2)Man(a1-3)]Man(b1-4)GlcNAc(b1-4)GlcNAc
# Procedure, shortened: as §1
# GlcNAc(b1-3)Fuc = target: GlcNAc(b1-3)Fuc
# Procedure, shortened: as §1
# GlcNAc(b1-3)Gal = target: GlcNAc(b1-3)Gal
# Procedure, shortened: as §1
# [13] = target: GlcNAc(b1-3)Gal(b1-3)GalNAc
# Procedure, shortened: as §1
# GlcNAc(b1-3)Gal(b1-4)Glc = target: GlcNAc(b1-3)Gal(b1-4)Glc
# Procedure, shortened: as §1
# [14] = target: GlcNAc(b1-3)Gal(b1-4)GlcNAc
# Procedure, shortened: as §1
# [15] = target: GlcNAc(b1-3)Gal(b1-4)GlcNAc(b1-2)Man(a1-3)[GlcNAc(b1-3)Gal(b1-4)GlcNAc(b1-2)Man(a1-6)]Man(b1-4)GlcNAc(b1-4)GlcNAc
# Procedure, shortened: as §1
# [16] = target: GlcNAc(b1-3)Gal(b1-4)GlcNAc(b1-2)Man(a1-3)[GlcNAc(b1-3)Gal(b1-4)GlcNAc(b1-2)Man(a1-6)]Man(b1-4)GlcNAc(b1-4)[Fuc(a1-6)]GlcNAc
# Procedure, shortened: as §1
# [17] = target: GlcNAc(b1-3)Gal(b1-4)GlcNAc(b1-2)[GlcNAc(b1-3)Gal(b1-4)GlcNAc(b1-6)]Man(a1-6)[GlcNAc(b1-3)Gal(b1-4)GlcNAc(b1-2)Man(a1-3)]Man(b1-4)GlcNAc(b1-4)GlcNAc
# Procedure, shortened: as §1
# [18] = target: GlcNAc(b1-3)Gal(b1-4)GlcNAc(b1-3)Gal(b1-4)GlcNAc
# Procedure, shortened: as §1
# [19] = target: GlcNAc(b1-3)Gal(b1-4)GlcNAc(b1-3)Gal(b1-4)GlcNAc(b1-2)Man(a1-3)[GlcNAc(b1-3)Gal(b1-4)GlcNAc(b1-3)Gal(b1-4)GlcNAc(b1-2)Man(a1-6)]Man(b1-4)GlcNAc(b1-4)GlcNAc
# Procedure, shortened: as §1
# [20] = target: GlcNAc(b1-3)Gal(b1-4)GlcNAc(b1-3)Gal(b1-4)GlcNAc(b1-2)Man(a1-3)[GlcNAc(b1-3)Gal(b1-4)GlcNAc(b1-3)Gal(b1-4)GlcNAc(b1-2)Man(a1-6)]Man(b1-4)GlcNAc(b1-4)[Fuc(a1-6)]GlcNAc
# Procedure, shortened: as §1
# [21] = target: GlcNAc(b1-3)Gal(b1-4)GlcNAc(b1-3)Gal(b1-4)GlcNAc(b1-2)[GlcNAc(b1-3)Gal(b1-4)GlcNAc(b1-3)Gal(b1-4)GlcNAc(b1-6)]Man(a1-6)[GlcNAc(b1-3)Gal(b1-4)GlcNAc(b1-3)Gal(b1-4)GlcNAc(b1-2)Man(a1-3)]Man(b1-4)GlcNAc(b1-4)[Fuc(a1-6)]GlcNAc
# Procedure, shortened: as §1
# [22] = target: GlcNAc(b1-3)Gal(b1-4)GlcNAc(b1-3)Gal(b1-4)GlcNAc(b1-3)Gal(b1-4)GlcNAc(b1-2)Man(a1-3)[GlcNAc(b1-3)Gal(b1-4)GlcNAc(b1-3)Gal(b1-4)GlcNAc(b1-3)Gal(b1-4)GlcNAc(b1-2)Man(a1-6)]Man(b1-4)GlcNAc(b1-4)GlcNAc
# Procedure, shortened: as §1
# [23] = target: GlcNAc(b1-3)Gal(b1-4)GlcNAc(b1-3)Gal(b1-4)GlcNAc(b1-3)Gal(b1-4)GlcNAc(b1-2)Man(a1-3)[GlcNAc(b1-3)Gal(b1-4)GlcNAc(b1-3)Gal(b1-4)GlcNAc(b1-3)Gal(b1-4)GlcNAc(b1-2)Man(a1-6)]Man(b1-4)GlcNAc(b1-4)[Fuc(a1-6)]GlcNAc
# Procedure, shortened: as §1
# [24] = target: GlcNAc(b1-3)Gal(b1-4)GlcNAc(b1-3)Gal(b1-4)GlcNAc(b1-3)Gal(b1-4)GlcNAc(b1-2)[GlcNAc(b1-3)Gal(b1-4)GlcNAc(b1-3)Gal(b1-4)GlcNAc(b1-3)Gal(b1-4)GlcNAc(b1-6)]Man(a1-6)[GlcNAc(b1-3)Gal(b1-4)GlcNAc(b1-3)Gal(b1-4)GlcNAc(b1-3)Gal(b1-4)GlcNAc(b1-2)Man(a1-3)]Man(b1-4)GlcNAc(b1-4)[Fuc(a1-6)]GlcNAc
# Procedure, shortened: as §1
# [25] = target: GlcNAc(b1-3)Gal(b1-4)GlcNAc(b1-3)Gal(b1-4)GlcNAc(b1-3)Gal(b1-4)GlcNAc(b1-3)Gal(b1-4)GlcNAc(b1-2)Man(a1-3)[GlcNAc(b1-3)Gal(b1-4)GlcNAc(b1-3)Gal(b1-4)GlcNAc(b1-3)Gal(b1-4)GlcNAc(b1-3)Gal(b1-4)GlcNAc(b1-2)Man(a1-6)]Man(b1-4)GlcNAc(b1-4)GlcNAc
# Procedure, shortened: as §1
# [26] = target: GlcNAc(b1-3)Gal(b1-4)GlcNAc(b1-3)Gal(b1-4)GlcNAc(b1-3)Gal(b1-4)GlcNAc(b1-3)Gal(b1-4)GlcNAc(b1-2)Man(a1-3)[GlcNAc(b1-3)Gal(b1-4)GlcNAc(b1-3)Gal(b1-4)GlcNAc(b1-3)Gal(b1-4)GlcNAc(b1-3)Gal(b1-4)GlcNAc(b1-2)Man(a1-6)]Man(b1-4)GlcNAc(b1-4)[Fuc(a1-6)]GlcNAc
# Procedure, shortened: as §1
# [27] = target: GlcNAc(b1-3)Gal(b1-4)GlcNAc(b1-3)Gal(b1-4)GlcNAc(b1-3)Gal(b1-4)GlcNAc(b1-3)Gal(b1-4)GlcNAc(b1-2)[GlcNAc(b1-3)Gal(b1-4)GlcNAc(b1-3)Gal(b1-4)GlcNAc(b1-3)Gal(b1-4)GlcNAc(b1-3)Gal(b1-4)GlcNAc(b1-6)]Man(a1-6)[GlcNAc(b1-3)Gal(b1-4)GlcNAc(b1-3)Gal(b1-4)GlcNAc(b1-3)Gal(b1-4)GlcNAc(b1-3)Gal(b1-4)GlcNAc(b1-2)Man(a1-3)]Man(b1-4)GlcNAc(b1-4)[Fuc(a1-6)]GlcNAc
# Procedure, shortened: as §1
binder,measurement,setting,value
BT3172pd (Bacteroides thetaiotaomicron) (protein) MLPLRAEHYYYKQISLKEGLPSNVRCILRDEQGFIWIGTKAGLGKFDGHQLKRYKHQANDPHSLLHNLIYQIAEDKQHNIWILTEKGIARYQQQSNNFTFPTDEEGNYITAYSFCLVPDGILFGGKDRIYKYSYKDSSLRLLQYFNANSFKITALSVWDSKTLLCCSRWTGLYLVDLQTGEHRRPPFDCGPEITSMITDSKNRIWIAPYSGGLRCYSRDGKLSASYTTHNSSLSNDIVLSLAEREEQLWIGTDGGGINILHPETGEISQLEYIPGRENYSLPANSILCLHNDYNNNVWAGSTCNGLISIREVSMKTYTDVVPGNDRGLSNGTVRSLYRQSPDSIWIGTDGGGINLFSPHTEKFTHYSSTWGDKVAFISGFTPGKLLISLFSKGVFVFNPATGEKQPFTIIDKETTTRLCNRGKSVNLYQNTPNTVLFLGDHIYQYHLKEKKFSTITEEEGKDIVGTLVPFDHQENLTYINDIKHIYELDDQTSRLKTVFECYTDTVISSVSHDEQGHFWIGSNFGLIHYDPVLKSRTLVPTNLFTEINMVLCDQKGKVWIGVDNMLFAYFIKEQKFVLFGESNGAIQNEYLPNARLVNEQGDAYIGGVKGMLRIDGQLLLNTSEMPELQLLDITINGESANHEWYNHPAKISVPWNSNISIRIMSREEDIFRQKIYRYQIEGLNNEYTESYNPELVIRSLLPGSYRIMASCTAKDGSWIPDQQVLELTVLPPWYRTHHHHHH,glycan array binding signal (z-score),[1],-0.448
same,glycan array binding signal (z-score),[2],-0.004
same,glycan array binding signal (z-score),[3],-0.432
same,glycan array binding signal (z-score),[4],-0.689
same,glycan array binding signal (z-score),[5],0.427
same,glycan array binding signal (z-score),[6],-0.461
same,glycan array binding signal (z-score),[7],0.382
same,glycan array binding signal (z-score),[8],-0.149
same,glycan array binding signal (z-score),[9],-0.738
same,glycan array binding signal (z-score),[10],-0.563
same,glycan array binding signal (z-score),[11],-0.17
same,glycan array binding signal (z-score),[12],-0.604
same,glycan array binding signal (z-score),GlcNAc(b1-3)Fuc,0.844
same,glycan array binding signal (z-score),GlcNAc(b1-3)Gal,-0.508
same,glycan array binding signal (z-score),[13],0.3
same,glycan array binding signal (z-score),GlcNAc(b1-3)Gal(b1-4)Glc,-0.285
same,glycan array binding signal (z-score),[14],-0.419
same,glycan array binding signal (z-score),[15],-0.327
same,glycan array binding signal (z-score),[16],-0.74
same,glycan array binding signal (z-score),[17],-0.977
same,glycan array binding signal (z-score),[18],-0.505
same,glycan array binding signal (z-score),[19],-0.177
same,glycan array binding signal (z-score),[20],-0.504
same,glycan array binding signal (z-score),[21],-0.268
same,glycan array binding signal (z-score),[22],-0.361
same,glycan array binding signal (z-score),[23],-0.183
same,glycan array binding signal (z-score),[24],-0.376
same,glycan array binding signal (z-score),[25],-0.791
same,glycan array binding signal (z-score),[26],1.08
same,glycan array binding signal (z-score),[27],-0.365
